# According to PubChem BioAssay AID686970 (National Center for Advancing Translational Sciences (NCATS), 2013):
# Hit rate of the full screen: of about 360,000 compounds, about 6,000 (1.7%) were called active. Inconclusive means that the source gave no clear call. Such entries were picked first, then a sample of the others. The call rests on the fitted dose curve; in most records, active means well fitted cell-killing curve with a large enough effect; inconclusive means small, poorly fitted or top-dose-only effect, or effect the other way; inactive means flat fitted curve, though single readings scatter. Potencies of inconclusive entries are left out as doubtful fits.
# Assay: qHTS for induction of synthetic lethality in tumor cells producing 2HG: qHTS for the HT-1080-NT fibrosarcoma cell line;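 further: NT is the 2HG producing partner of a matched IDH1 knockdown line; nearly all actives have a fitted effect of over 55% in size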;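 on activity, negative = less viability: 0% = DMSO-treated cells and -100% = media-only wells without cells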
# Details: HT-1080-NT fibrosarcoma viability, CellTiter-Glo ATP luminescence, 48 h; activity, negative = less viability: at 46.1 µM (top of the series) unless noted
# In short: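 Compounds were tested in concentration-response format on HT-1080-NT cells for 48 hours at 37 degrees C. Cell viability came from CellTiter-Glo luminescence; curves were classified by r2, response magnitude and activity.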
# Potency means the concentration at half of the fitted maximal effect; tags describe the fitted curve by direction and shape.
SMILES,Potency,"activity, negative = less viability"
Cc1ccc(C(=O)Nc2ccc(C(=O)N/N=C/c3ccccn3)cc2)cc1,"inconclusive [cytotoxic, full curve, poor fit]",
CCN1CCC(O)(/C=C/c2ccc(C(C)C)cc2)C(C(=O)/C=C/c2ccc(C(C)C)cc2)C1 (centres undefined),"inconclusive [cytotoxic, single point]",
C/C(=N\NC(=S)NC(C)C)c1ccc(C(C)(C)C)cc1,"inconclusive [cytotoxic, single point]",
O=C(NCCOc1ccccc1)N1[C@H]2CC[C@@H]1C=C(c1ccc(F)cc1OCc1ccccc1)C2,,inactive: -28.7%
COc1ccc(CCNc2nnc(Sc3nnnn3-c3ccccc3)s2)cc1OC,active: 3.55 µM,
Cc1ccc(Cl)cc1NC(=O)c1ccc(CSc2nnnn2C)cc1,,inconclusive: -30.5% [cytotoxic]
CCOC(=O)C1(CCCc2ccccc2)CCN(C(=O)C2=C(C)OCCO2)CC1,"inconclusive [cytotoxic, single point]",
Cn1nnnc1SCCNC/C=C/c1ccccc1,,inactive: 4.16%
COc1ccc([C@@]23Oc4cc(OC)cc(OC)c4[C@]2(O)[C@H](O)[C@H](C(=O)N(C)C)[C@H]3c2ccccc2)cc1,"inconclusive [cytotoxic, full curve, poor fit]",
O=C(Cc1ccccc1)NNC1CC(=O)N(c2ccc(Oc3ccccc3)cc2)C1=O (centres undefined),"inconclusive [rising, single point]",
COc1ccc(-c2nnc3ccc(SCC(=O)N4CCCC4)nn23)cc1,,inactive: 10.7%
CCN(CC)C(=O)C1c2ccccc2Oc2ccccc21,,inactive: 3.8%
Cc1cccc(Cc2c(C)nc3c(C(=O)NCc4ccco4)cnn3c2C)c1,"inconclusive [cytotoxic, single point]",
CCOC(=O)C1CCCCN1S(=O)(=O)c1ccc2c(c1)CC(C)N2C(=O)C1CCC1 (centres undefined),"inconclusive [cytotoxic, single point]",
COc1ccccc1-c1cn[nH]c1-c1ccc(OCc2ccc([N+](=O)[O-])cc2)cc1O,"inconclusive [cytotoxic, partial curve]",
Cc1onc(-c2ccccc2Cl)c1C(=O)Nc1nc2ccc(S(C)(=O)=O)cc2s1,active: 14.6 µM,
COc1ccc([C@H]2CC(=O)C=C(c3cc(OC)ccc3OC)C2)cc1,"inconclusive [cytotoxic, single point]",

SMILES,Potency,"activity, negative = less viability"
Nc1ccc(S(=O)(=O)NCc2ccccn2)cc1,"inconclusive [rising, single point]",
O=C(COC(=O)c1cc(Cl)nc(Cl)c1)Nc1ccc(Cl)c(S(=O)(=O)N2CCOCC2)c1,,inactive: -11.7%
Cc1cc(C)cc(C(=O)NC(CC(N)=O)c2ccc(NC3CCCC3)c([N+](=O)[O-])c2)c1 (centres undefined),,inactive: 3.1%
O=C(Nc1cnn(Cc2ccc(Cl)c(Cl)c2)c1)C12CC3CC(CC(C3)C1)C2,"inconclusive [cytotoxic, single point]",
COc1ccc(/C=C/CN2CCC(C(=O)NC(c3ccc(F)cc3)c3ccc4ccccc4n3)CC2)cc1 (centres undefined),active: 16.4 µM,
C=CCSc1nsc(NC(=O)Nc2cccc(C(C)=O)c2)n1,"inconclusive [cytotoxic, partial curve]",
O=C(Nc1nccs1)c1cc2cc(Cl)ccc2oc1=O,"inconclusive [rising, partial curve]",
OCC1OC(c2ccc(O)cc2O)C(O)C1O (centres undefined),,inactive: 20.2%
COC(=O)c1cccc(NC(=O)/C=C/c2ccc3c(c2)OCO3)c1,"inconclusive [cytotoxic, single point]",
COc1ccc(S(=O)(=O)N2CCc3ccccc32)cc1C(=O)NC1(C)CCS(=O)(=O)C1 (centres undefined),,inactive: -3.98%
CC(=O)c1cc(O)c2ccccc2c1O,,inactive: -16.5%
N#CCc1ccc(OC(=O)c2cccnc2Cl)cc1,,inactive: 24.1%
O=C(Nc1ccc(F)cc1)c1sccc1SCc1cccc(C(F)(F)F)c1,active: 12.6 µM,
Cc1[nH]n(-c2ccc([N+](=O)[O-])cc2)c(=O)c1C=NCCN1CCN(C(=O)C(C)C)CC1,"inconclusive [cytotoxic, full curve]",
CCC1=Nc2cc(C(=O)NCC3CCCO3)ccc2Sc2ccc(Br)cc21 (centres undefined),"inconclusive [cytotoxic, partial curve]",
CC1=CC(C)(C)Nc2ccc(OC(=O)CCN3C(=O)c4ccccc4C3=O)cc21,"inconclusive [cytotoxic, single point]",
CCOc1ccc2nc(N/C(N)=N/S(=O)(=O)c3ccc(C)cc3)nc(C)c2c1,,inactive: 10.9%
